The record followed here is patent US10017546B2 (KOREA ADVANCED INSTITUTE OF SCIENCE AND TECHNOLOGY, priority 2015, dated 2018).

For one experiment, the system named is biotin-DNA. As to the kind of experiment: Binding titration of MA-Ft with biotinylated DNA probe. To be noted: supported by titration. On the procedure: FIG. 18 illustrates binding titration of MA-Ft with a biotinylated DNA probe. 0.1 μM of MA-Ft was titrated with varying concentrations of biotin-DNA (0-4 μM). […] Clear levels of free biotin-DNA were observed only with over 2.4 μM of biotin-DNA.

The next experiment has as its system HeLa cells. As to the kind of experiment: Clustering and internalization of biotinylated cell-surface proteins. The class given is cell-based. The conditions noted are these: Cy5-labeled avidin proteins, 37° C. On the procedure:
(§1) Following biotinylation, the cells were washed twice with cold PBS-CM, treated with 100 mM glycine in PBS-CM for blocking, and washed again twice with cold PBS. […] Unbound avidin proteins were removed, and media was replaced with pre-warmed DMEM (37° C.). Cells were incubated for 5, 10, or 30 m at 37° C. Cells were washed, and fixed with 4% formaldehyde in PBS for confocal imaging (ZEISS, LSM510 META). To visualize endosome or lysozome-specific proteins, cells were fixed, permeabilized, and incubated with a primary antibody: anti-Rab11 (a GTPase of recycling endosome, Abcham) or anti-LAM P1 (Lysosomal-associated membrane protein 1, Abcham). Afterward, cells were incubated with a fluorescent secondary antibody (goat anti-rabbit 555, Abcham), and images were acquired with a confocal microscopy (ZEISS, LSM510 META).

The next experiment concerns SOAS2 cells. The description is as above. The class given is cell-based. On the procedure:
as §1

The next experiment concerns U2OS cells. Described as above. The class given is cell-based. How it is done:
as §1

B1: MA-Ft: monodin fused to 24-meric human ferritin via protein G linker (SEQ ID NO: 10) (protein)
chain: MFDASNFKDFSSIASASSSWQNQHGSTMIIQVDSFGNVSGQYVNRAEGTGCQNSPYPLTGRVNGTFIDFSVKWNNSTENCNSNTQWTGYAQVNGNNTEIVTRWNLKYEGGSGPAIWQGQDTFQYVPTTEAEAAAKEAAAKEAAAKATYKLVINGKTLKGETTTKAVDAETAEKAFKQYANDYGVDGVWTYDDATKTFTVTEKPEVIDASELTPAVTTYKLVINGKTLKGETTTKAVDAETAEKAFKQYANDYGVDGVWTYDDATKTFTVTEGGGGSGSGGGG[about 200 residues cut from this listing]
modifications: amino acid sequence of MA-Ft
In the experiment on biotin-DNA, B1 gave a biotin binding sites of 24. Moreover, the “incubation time after which avidin protein was internalized” value with HeLa cells worked out at 5 min. For the same molecule, the internalization by clustering entry in the experiment with SOAS2 cells and in the experiment with U2OS cells was “Rapid internalization” throughout.
